Measured values from PubChem BioAssay AID720542 (National Center for Advancing Translational Sciences (NCATS), 2013).
The whole screen tested about 360,000 compounds, of which about 740 (0.21%) were called active. Inconclusive results, whose numbers are uncertain, are shown with a selection of clear calls. Calls follow the shape of the dose curve; as a rule, active = well fitted inhibition curve with a large enough effect; inconclusive = small, poorly fitted or top-dose-only effect; inactive = no such curve, though single readings can be large or run the other way. Potencies of inconclusive entries are left out as doubtful fits.

Tested on: Plasmodium falciparum AMA1 (3D7) - RON2 peptide interaction
Test: qHTS for Inhibitors of AMA1-RON; Towards Development of Antimalarial Drug Lead: Primary Screen; also: nearly all actives have a fitted effect of over 45% in size;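 as to activity change, negative = inhibition: 0% = vehicle wells and -100% = peptide control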
Settings: AlphaScreen AMA1-biotinylated RON2 peptide binding; activity change, negative = inhibition: at 58.2 µM (top of the series) unless noted
In short: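 AMA1 (3D7) with his tag at 25 nM final met compounds first, then biotinylated RON2 peptide at 25 nM; detection used donor plus acceptor beads, 10 µg/mL apiece, read by AlphaScreen after 30 min at room temperature.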
Potency is read from the fitted curve at half-maximal effect; tags tell the direction and shape of the fitted curve.

Compound	Potency	activity change, negative = inhibition
CC1(C)Cc2ccccc2C(NNC(=O)c2ccccn2)=N1	inconclusive [inhibitor, single point]	–
Cc1cccc(C)c1NC(=O)C(c1ccccc1)N1CCOCC1 (stereo not drawn)	inconclusive [inhibitor, partial curve]	–
CC(C)C[C@@H]1COc2cccc(N3CCN(Cc4ccccc4F)CC3)c2S(=O)(=O)N1	–	inactive: -14.9%
CCCNC(=O)NC(=O)CN1C(=O)NC(C)(c2ccc(C)cc2)C1=O (stereo not drawn)	–	inactive: 1.64%
COc1ccc(C(=O)NCc2cc(C)nc3ccccc23)cc1	–	inactive: 8.72%
Nc1c(Cl)cc(C2=NCCn3nc4cc([N+](=O)[O-])ccc4c32)cc1Cl	inconclusive [inhibitor, partial curve]	–
Cc1ccc(S(=O)(=O)Nc2cccc(-c3ccc(N4CCCCCC4)nn3)c2)cc1	–	inactive: -10.9%
COc1ccc(CCNC(=O)c2ccc3c(c2)N(Cc2ccc(F)cc2)CCS3)cc1OC	inconclusive [inhibitor, partial curve]	–
O=C(NCC1CCCO1)[C@@H]1CSC2c3ccccc3C(=O)N21 (stereo partly drawn)	–	inactive: -6.68%
COc1ccc(CCN2CCCC(CN(C)C(=O)c3cc(C)oc3C)C2)cc1 (stereo not drawn)	–	inactive: -1.4%
CCC(C)C(NS(=O)(=O)c1ccc(C)cc1)C(=O)NCCCN1CCOCC1 (stereo not drawn)	–	inactive: 11.3%
CCC/C(=C1/c2ccccc2C(=O)N1c1ccccc1)c1ccc2c(c1)OCCO2	inconclusive [inhibitor, single point]	–
Cc1ccc(Nc2cc(C)nc3c(C)ccc([N+](=O)[O-])c23)cc1	inconclusive [inhibitor, partial curve]	–
O=C(NC1CCCC1)C(c1ccccc1)N(C(=O)c1ccno1)c1ccccc1 (stereo not drawn)	–	inactive: 1.82%
COc1ccc(C2CC(=O)Oc3c(C(CCN4CCCC(C)C4)c4ccc(N(C)C)cc4)c(OC)cc(OC)c32)cc1 (stereo not drawn)	active: 17.8 µM	–
Cc1ccc(-c2noc(CN(C)C(=O)c3ccc(Br)o3)n2)cc1	inconclusive [inhibitor, partial curve]	–
COCCNC(=O)c1cc(-c2ccc(Cl)c(Cl)c2)on1	–	inactive: 4.92%
CSc1ccc(CN2CCC(Cc3ccccc3)CC2)cc1	inconclusive [inhibitor, partial curve]	–
Cc1cc(OC(=O)c2cccc([N+](=O)[O-])c2)c(C)cc1CN1CCOCC1	inconclusive [inhibitor, partial curve]	–
Cc1n[nH]c(C)c1CCC(=O)N/N=C/c1cccs1	–	inactive: 18.2%
CCc1ccc(N/C(SC)=C(/C#N)C(N)=O)cc1	inconclusive [inhibitor, single point]	–
O=C(NCCCN1CCCC1=O)c1ccc(Cl)c(Cl)c1	–	inactive: -3.27%
CCOC(=O)C(=NC(C)CC)NNc1ccc(Br)cc1 (stereo not drawn)	inconclusive [inhibitor, single point]	–
O=C(N/N=C/c1c(O)ccc2ccccc12)c1ccc[n+](CCO)c1	inconclusive [inhibitor, partial curve]	–

Compound	Potency	activity change, negative = inhibition
COc1cc2c(cc1OC)C(c1ccccc1O)NCC2 (stereo not drawn)	–	inconclusive: -3.69% [inhibitor]
Cc1cc(C)c2nc(N3CCC(C(=O)N4CCCC4)CC3)sc2c1	–	inactive: 1.42%
Cc1cc2ccccn2c1C(C[N+](=O)[O-])c1ccc(N(C)C)cc1 (stereo not drawn)	inconclusive [inhibitor, partial curve]	–
Cc1cccc(CN2CCN(C(=O)c3cccc4ccccc34)CC2)c1	inconclusive [inhibitor, partial curve]	–
CC/C=C/C(=O)N1CC2(CC(c3cccc(NC(=O)CC(c4ccccc4)c4ccccc4)c3)=NO2)C[C@@H]1C(N)=O (stereo partly drawn)	inconclusive [inhibitor, partial curve, poor fit]	–
O=C(C(=NNc1ccccc1)c1ccccc1)c1ccccc1	inconclusive [inhibitor, single point]	–
CCn1c(SCC(=O)N2CCOCC2)nc2c([nH]c3ccccc32)c1=O	–	inactive: 10.8%
CC(C)(CN1CCN(c2ccccc2)CC1)NS(=O)(=O)c1ccccc1	inconclusive [inhibitor, partial curve]	–
CSc1ccc(/C=N/N2CCN(Cc3ccccc3)CC2)cc1	inconclusive [inhibitor, partial curve]	–
FC(F)(F)c1nc2ccccc2nc1N/N=C/c1c(Cl)cccc1Cl	–	inactive: 0.924%
CC(=O)C1CCCN(C(=O)c2ccc3nc(Cc4cccc(Cl)c4)oc3c2)C1 (stereo not drawn)	–	inactive: -4.97%
O=C(NC1CCCCC1)C12CC3CC(C1)CC(n1cncn1)(C3)C2	–	inactive: 7.75%
N#Cc1nc(COc2ccc(Br)cc2)oc1N1CCN(Cc2ccccc2)CC1	inconclusive [inhibitor, single point]	–
O=C(O)c1ccc(N=Nc2c(O)ccc3ncccc23)cc1	active: 6.31 µM	–
CCOc1ccc(C2/C(=C(/O)c3ccc4c(c3)CC(C)O4)C(=O)C(=O)N2CCCn2ccnc2)cc1OCC (stereo not drawn)	–	inactive: 6.67%
O=C1c2ccccc2C(=O)C12Cc1ccccc1N1CCN(c3ccccc3)CC12 (stereo not drawn)	–	inactive: -6.25%
COc1ccc(NC(=O)c2ccco2)cc1NC(=O)c1ccco1	–	inactive: 34.9%
CC(C)(C)c1ccc(/C=N/N2CCN(c3ccccn3)CC2)cc1	inconclusive [inhibitor, full curve, poor fit]	–
O=C(c1ccc(=O)[nH]n1)N1CCN(S(=O)(=O)c2ccc(C(F)(F)F)cc2)CC1	–	inactive: 2.87%
CCOc1cc(/C=N/NC(=O)c2cccs2)ccc1OC(=O)N1CCOCC1	–	inactive: 8.73%
Cc1ccccc1OC1(C)CCN(Cc2ccc(-c3ccccn3)cc2)C1 (stereo not drawn)	inconclusive [inhibitor, single point]	–
COc1cc(OC)c2c(-c3ccccc3)cc(=O)oc2c1C(CCN1CCOCC1)c1ccc2c(c1)OCO2 (stereo not drawn)	inconclusive [inhibitor, single point]	–
COCC(=O)N(Cc1cc2ccc(C)cc2[nH]c1=O)c1cccc(C)c1	–	inactive: -10.2%
O=[N+]([O-])c1ccccc1SNc1ccc(Br)cn1	inconclusive [inhibitor, full curve]	–
